Source: the supplement of paper PMC11417369
± gives the standard deviation of the averaged measurements. The list shows a part of the results.

Test system: PfAP2-LT AP2 domain (GST-tagged)
Test: gcPBM binding intensity (ln(normalized median fluorescence intensity)); higher = stronger DNA binding
Summary of the method: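 For binding intensity, the highest Masliner-normalised natural-log median intensity across replicate spots of either probe orientation was taken. Protein bound to the array was stained with Alexa488 anti-GST antibody and scanned at 488 nm. The protein, GST-tagged P. falciparum DNA-binding domains from E. coli at about 25 μg on average, had been applied for 1 h to an Agilent 4 × 180k array of primer-extended double-stranded 36-bp intergenic genomic probes and negative controls.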

“TCCAAATAAATATATTGTACAGAATTATTGATACCT [XGTACX_site327]” was tested. Which “gcPBM binding intensity (ln)” value did it give?
Its value is 8.63 ± 0.45.

Which “gcPBM binding intensity (ln)” value does the source give for “AGAAAAGGAAAATAAACATGCAAAAATAATATTAAA [TGCATGCA_site337]” here?
The value was 8.88 ± 0.64.

“ATTCTGAATGTTATGCGTACATATTAATCCTATTTA [XGTACX_site1216]” was tested. Which “gcPBM binding intensity (ln)” value did it give?
Its value is 8.8 ± 0.45.

Which “gcPBM binding intensity (ln)” value does the source give for “TGTAATAATTATTGCACGCACACAAAAACCTATAGA [CACACA_site2932]” here?
Its value is 9.12 ± 0.39.

With “TAAGGTTCATTAAAGTGTACACATAAATACCGTAAC [XGTACX_site8212]” as the sequence, how does the “gcPBM binding intensity (ln)” value read?
Its value is 8.97 ± 0.42.

How did the “gcPBM binding intensity (ln)” value turn out when “AAGTAAATATAATAAGGTACACATAAATAAATAAAT [XGTACX_site1740]” was run?
Its value is 9.04 ± 0.56.

How did the “gcPBM binding intensity (ln)” value turn out when “TATAAATATGTATATACACACTTTTAATATTCATAA [CACACA_site7856]” was run?
Its value is 8.66 ± 0.45.

With “TTTTCTTACTATTGTAGTACAATATTATATTCTTTT [XGTACX_site1925]” as the sequence, how does the “gcPBM binding intensity (ln)” value read?
Its value is 8.93 ± 0.61.

For “TGCGTATTCTTATTAGGTACACATATTCGTGATAAT [XGTACX_site5681]”, which “gcPBM binding intensity (ln)” value is on record?
The value was 8.82 ± 0.41.

For “TAATATTTTTATTATTAGAATTGTATATGTTTAATA [CACACA_negctrl_site1833]”, which “gcPBM binding intensity (ln)” value is on record?
The value was 8.2 ± 0.54.

“ATAAAAGGAATATTTGCATGTGGTAGTACATAACAT [TGCATGCA_site978]” was tested. Which “gcPBM binding intensity (ln)” value did it give?
Its value is 8.85 ± 0.37.

How did the “gcPBM binding intensity (ln)” value turn out when “CATATATCATAAATATGTACGAAATAAAAGAATCAT [XGTACX_site942]” was run?
The value was 8.97 ± 0.4.

How did the “gcPBM binding intensity (ln)” value turn out when “TTTTCTAAAATATTCATAATAAATCAAAAAAAAAAA [GTGCAC_negctrl_site320]” was run?
Its value is 8.04 ± 0.49.

For “TACAAATATAGACACACACACATATATATATATATA [CACACA_site585]”, which “gcPBM binding intensity (ln)” value is on record?
The value was 9.975 ± 0.064.

For “TAATTTGAAAAATTGTGTACTCATAAAATAAATAAA [XGTACX_site2138]”, which “gcPBM binding intensity (ln)” value is on record?
Its value is 8.31 ± 0.42.

How did the “gcPBM binding intensity (ln)” value turn out when “ATAAAAAAATAAAACACACACATATAGATTATAGAT [CACACA_site7343]” was run?
The value was 9.46 ± 0.35.

With “ATAGATGATATACGTAAACACACAAATAAAAAAAAT [CACACA_site9095]” as the sequence, how does the “gcPBM binding intensity (ln)” value read?
The value was 9.22 ± 0.56.

“TTTATTTTTCATAATTGTACAAAAATAAATGGAAAC [XGTACX_site5144]” was tested. Which “gcPBM binding intensity (ln)” value did it give?
The value was 8.43 ± 0.42.

Which “gcPBM binding intensity (ln)” value does the source give for “TACATACAGATATATACACACATATAAAATATAGAT [CACACA_site6319]” here?
Its value is 9.34 ± 0.4.

With “ATTATATATAAATATACACACATATATAAAATACAT [CACACA_site5298]” as the sequence, how does the “gcPBM binding intensity (ln)” value read?
The value was 9.03 ± 0.36.

AAGAGAAAAATATGGTTGCACTAAAAATATATATTT was tested. Which “gcPBM binding intensity (ln)” value did it give?
Its value is 8.59 ± 0.5.

“AAATTAAAAAGAGCTTGTACAGATGTATACATAATA [XGTACX_site3882]” was tested. Which “gcPBM binding intensity (ln)” value did it give?
Its value is 8.94 ± 0.47.

With “TTTATAATTCTTACAACACACAATGTACATTTATAT [CACACA_site1261]” as the sequence, how does the “gcPBM binding intensity (ln)” value read?
The value was 9 ± 0.45.

“AATTTATATGTTTTGTGTACACAATTTATTAAATTA [XGTACX_site6448]” was tested. Which “gcPBM binding intensity (ln)” value did it give?
Its value is 8.96 ± 0.41.

Which “gcPBM binding intensity (ln)” value does the source give for “TATATGAAGCTATAGACACACATATAAAAATAGAAT [CACACA_site1313]” here?
The value was 9.09 ± 0.47.

Which “gcPBM binding intensity (ln)” value does the source give for “TACATATATATATGTATATATATATATATATAAATA [XGTACX_negctrl_site351]” here?
Its value is 9.12 ± 0.38.

For “ATGAATAAATGAACATGTACATATATATATATATTA [XGTACX_site5005]”, which “gcPBM binding intensity (ln)” value is on record?
Its value is 9.16 ± 0.41.

With “ACATAACTGATATATACACACAATACAAATATAGAT [CACACA_site7328]” as the sequence, how does the “gcPBM binding intensity (ln)” value read?
The value was 9.35 ± 0.42.

With “AAATGTGCATTATGTTGTACAGTCGAAATTTTTTTT [XGTACX_site3812]” as the sequence, how does the “gcPBM binding intensity (ln)” value read?
Its value is 8.68 ± 0.41.

For “TTTTCTAAATATTATAGTACTCTTAATAATATTAAC [XGTACX_site4222]”, which “gcPBM binding intensity (ln)” value is on record?
Its value is 8.36 ± 0.47.

TAAAAAATTAATAAAGTGCATAAATATTACAATATT was tested. Which “gcPBM binding intensity (ln)” value did it give?
The value was 8.64 ± 0.47.

For “TTAACAAAATATAGCACACATAAATATATATTTATG [CACACA_site351]”, which “gcPBM binding intensity (ln)” value is on record?
Its value is 8.79 ± 0.49.

For “ATTCATATATTTATTGCATGCAAAGTAAAATAAATA [TGCATGCA_site307]”, which “gcPBM binding intensity (ln)” value is on record?
Its value is 8.85 ± 0.35.

For “AATATTAAAATATAAACACACAAAATTCAATTATAT [CACACA_site5971]”, which “gcPBM binding intensity (ln)” value is on record?
Its value is 8.85 ± 0.46.

Which “gcPBM binding intensity (ln)” value does the source give for “GACATATTAGAAGGGTGTACATACTTTTAATCATTT [XGTACX_site1698]” here?
Its value is 8.78 ± 0.47.

With “AATTAAAAAGAAAAAAGTACATATTTTTTTAAAAAA [XGTACX_site7384]” as the sequence, how does the “gcPBM binding intensity (ln)” value read?
Its value is 8.3 ± 0.55.

With “ATATATATATATATGTGTACTAATAAGGTTAAATAA [XGTACX_site1535]” as the sequence, how does the “gcPBM binding intensity (ln)” value read?
The value was 9.12 ± 0.29.

With “AAATATATATTTCTTAGTACATATGTATTTTTTTTT [XGTACX_site938]” as the sequence, how does the “gcPBM binding intensity (ln)” value read?
The value was 8.8 ± 0.52.

Which “gcPBM binding intensity (ln)” value does the source give for “AATAAAAAAGAATATACACACATAAATATAAAATAT [CACACA_site683]” here?
Its value is 9.25 ± 0.38.

Which “gcPBM binding intensity (ln)” value does the source give for “ACAAAATGTAGATATTGTACATATTGTAGATATTGT [XGTACX_site7619]” here?
The value was 9.03 ± 0.42.

With “TTTGACAAATTATTGTGTACACAATATTATTATATA [XGTACX_site8320]” as the sequence, how does the “gcPBM binding intensity (ln)” value read?
The value was 8.83 ± 0.42.

Which “gcPBM binding intensity (ln)” value does the source give for “ATGAAGAAGTGTAAATGTACATTTTATGTAGAACAA [XGTACX_site6925]” here?
The value was 8.92 ± 0.4.

With “ATTTAAGATTTAATCACACACATATAGATTATAGAC [CACACA_site7383]” as the sequence, how does the “gcPBM binding intensity (ln)” value read?
Its value is 8.96 ± 0.32.

For “TTTACAGAAAGTTACATACACACTAATATTTACACC [CACACA_site1009]”, which “gcPBM binding intensity (ln)” value is on record?
Its value is 8.86 ± 0.4.

For “TATAAGAGGATATATACACACAAAAATATGTACAGT [CACACA_site6885]”, which “gcPBM binding intensity (ln)” value is on record?
The value was 9.33 ± 0.4.
